# The other results are listed elsewhere or left out.
# B1: CFEM-SCL (Saccharomyces cerevisiae), O13547 (protein)
# chain: MRATTLLSSVVSLALLSKEVLATPPACLLACVAQVGKSSSTCDSLNQVTCYCEHENSAVKKCLDSICPNNDADAAYSAFKSSCSEQNASLGD
# Legend:
# Assay in all cases: glycan array binding signal (z-score within array); higher = stronger binding
# Conditions in all cases: glycan notation: IUPAC condensed, linker removed
# [1] = molecular target: GlcNAc(a1-6)Gal(b1-4)GlcNAc
# Method in brief: (§1)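 Glycan array data were curated from 3228 arrays in the Consortium for Functional Glycomics database and kept only where the protein sequence was available. Glycan names were converted to IUPAC-condensed notation, and columns mapping to the same glycan were averaged. The binding signal is a within-array Z-score, averaged across arrays of the same protein sequence at different concentrations or buffers and across linkers. Negative Z-scores can be read as non-binding.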
# [2] = molecular target: GlcNAc(b1-2)Gal(b1-3)GalNAc
# Method in brief: as §1
# [3] = molecular target: GlcNAc(b1-2)Man(a1-3)[GlcNAc(b1-2)Man(a1-6)]Man(b1-4)GlcNAc(b1-4)GlcNAc
# Method in brief: as §1
# [4] = molecular target: GlcNAc(b1-2)Man(a1-3)[GlcNAc(b1-2)Man(a1-6)]Man(b1-4)GlcNAc(b1-4)[Fuc(a1-6)]GlcNAc
# Method in brief: as §1
# [5] = molecular target: GlcNAc(b1-2)Man(a1-3)[GlcNAc(b1-4)][GlcNAc(b1-2)Man(a1-6)]Man(b1-4)GlcNAc(b1-4)GlcNAc
# Method in brief: as §1
# [6] = molecular target: GlcNAc(b1-2)Man(a1-3)[GlcNAc(b1-4)][GlcNAc(b1-2)Man(a1-6)]Man(b1-4)GlcNAc(b1-4)[Fuc(a1-6)]GlcNAc
# Method in brief: as §1
# [7] = molecular target: GlcNAc(b1-2)[GlcNAc(b1-4)]Man(a1-3)[GlcNAc(b1-2)Man(a1-6)]Man(b1-4)GlcNAc(b1-4)GlcNAc
# Method in brief: as §1
# [8] = molecular target: GlcNAc(b1-2)[GlcNAc(b1-4)]Man(a1-3)[GlcNAc(b1-4)][GlcNAc(b1-2)Man(a1-6)]Man(b1-4)GlcNAc(b1-4)GlcNAc
# Method in brief: as §1
# [9] = molecular target: GlcNAc(b1-2)[GlcNAc(b1-4)]Man(a1-3)[GlcNAc(b1-4)][GlcNAc(b1-2)[GlcNAc(b1-6)]Man(a1-6)]Man(b1-4)GlcNAc(b1-4)GlcNAc
# Method in brief: as §1
# [10] = molecular target: GlcNAc(b1-2)[GlcNAc(b1-4)]Man(a1-3)[GlcNAc(b1-4)][GlcNAc(b1-2)[GlcNAc(b1-6)]Man(a1-6)]Man(b1-4)GlcNAc(b1-4)[Fuc(a1-6)]GlcNAc
# Method in brief: as §1
# [11] = molecular target: GlcNAc(b1-2)[GlcNAc(b1-6)]Man(a1-6)[GlcNAc(b1-2)Man(a1-3)]Man(b1-4)GlcNAc(b1-4)GlcNAc
# Method in brief: as §1
# [12] = molecular target: GlcNAc(b1-2)[GlcNAc(b1-6)]Man(a1-6)[GlcNAc(b1-2)Man(a1-3)]Man(b1-4)GlcNAc(b1-4)[Fuc(a1-6)]GlcNAc
# Method in brief: as §1
# [13] = molecular target: GlcNAc(b1-2)[GlcNAc(b1-6)]Man(a1-6)[GlcNAc(b1-4)][GlcNAc(b1-2)Man(a1-3)]Man(b1-4)GlcNAc(b1-4)GlcNAc
# Method in brief: as §1
# [14] = molecular target: GlcNAc(b1-3)Fuc
# Method in brief: as §1
# [15] = molecular target: GlcNAc(b1-3)Gal
# Method in brief: as §1
# [16] = molecular target: GlcNAc(b1-3)Gal(b1-3)GalNAc
# Method in brief: as §1
# [17] = molecular target: GlcNAc(b1-3)Gal(b1-4)Glc
# Method in brief: as §1
# [18] = molecular target: GlcNAc(b1-3)Gal(b1-4)GlcNAc
# Method in brief: as §1
# [19] = molecular target: GlcNAc(b1-3)Gal(b1-4)GlcNAc(b1-2)Man(a1-3)[GlcNAc(b1-3)Gal(b1-4)GlcNAc(b1-2)Man(a1-6)]Man(b1-4)GlcNAc(b1-4)GlcNAc
# Method in brief: as §1
# [20] = molecular target: GlcNAc(b1-3)Gal(b1-4)GlcNAc(b1-2)Man(a1-3)[GlcNAc(b1-3)Gal(b1-4)GlcNAc(b1-2)Man(a1-6)]Man(b1-4)GlcNAc(b1-4)[Fuc(a1-6)]GlcNAc
# Method in brief: as §1
# [21] = molecular target: GlcNAc(b1-3)Gal(b1-4)GlcNAc(b1-2)[GlcNAc(b1-3)Gal(b1-4)GlcNAc(b1-6)]Man(a1-6)[GlcNAc(b1-3)Gal(b1-4)GlcNAc(b1-2)Man(a1-3)]Man(b1-4)GlcNAc(b1-4)GlcNAc
# Method in brief: as §1
# [22] = molecular target: GlcNAc(b1-3)Gal(b1-4)GlcNAc(b1-3)Gal(b1-4)GlcNAc
# Method in brief: as §1
# [23] = molecular target: GlcNAc(b1-3)Gal(b1-4)GlcNAc(b1-3)Gal(b1-4)GlcNAc(b1-2)Man(a1-3)[GlcNAc(b1-3)Gal(b1-4)GlcNAc(b1-3)Gal(b1-4)GlcNAc(b1-2)Man(a1-6)]Man(b1-4)GlcNAc(b1-4)GlcNAc
# Method in brief: as §1
# [24] = molecular target: GlcNAc(b1-3)Gal(b1-4)GlcNAc(b1-3)Gal(b1-4)GlcNAc(b1-2)Man(a1-3)[GlcNAc(b1-3)Gal(b1-4)GlcNAc(b1-3)Gal(b1-4)GlcNAc(b1-2)Man(a1-6)]Man(b1-4)GlcNAc(b1-4)[Fuc(a1-6)]GlcNAc
# Method in brief: as §1
# [25] = molecular target: GlcNAc(b1-3)Gal(b1-4)GlcNAc(b1-3)Gal(b1-4)GlcNAc(b1-2)[GlcNAc(b1-3)Gal(b1-4)GlcNAc(b1-3)Gal(b1-4)GlcNAc(b1-6)]Man(a1-6)[GlcNAc(b1-3)Gal(b1-4)GlcNAc(b1-3)Gal(b1-4)GlcNAc(b1-2)Man(a1-3)]Man(b1-4)GlcNAc(b1-4)[Fuc(a1-6)]GlcNAc
# Method in brief: as §1
# [26] = molecular target: GlcNAc(b1-3)Gal(b1-4)GlcNAc(b1-3)Gal(b1-4)GlcNAc(b1-3)Gal(b1-4)GlcNAc(b1-2)Man(a1-3)[GlcNAc(b1-3)Gal(b1-4)GlcNAc(b1-3)Gal(b1-4)GlcNAc(b1-3)Gal(b1-4)GlcNAc(b1-2)Man(a1-6)]Man(b1-4)GlcNAc(b1-4)GlcNAc
# Method in brief: as §1
# [27] = molecular target: GlcNAc(b1-3)Gal(b1-4)GlcNAc(b1-3)Gal(b1-4)GlcNAc(b1-3)Gal(b1-4)GlcNAc(b1-2)Man(a1-3)[GlcNAc(b1-3)Gal(b1-4)GlcNAc(b1-3)Gal(b1-4)GlcNAc(b1-3)Gal(b1-4)GlcNAc(b1-2)Man(a1-6)]Man(b1-4)GlcNAc(b1-4)[Fuc(a1-6)]GlcNAc
# Method in brief: as §1
# [28] = molecular target: GlcNAc(b1-3)Gal(b1-4)GlcNAc(b1-3)Gal(b1-4)GlcNAc(b1-3)Gal(b1-4)GlcNAc(b1-2)[GlcNAc(b1-3)Gal(b1-4)GlcNAc(b1-3)Gal(b1-4)GlcNAc(b1-3)Gal(b1-4)GlcNAc(b1-6)]Man(a1-6)[GlcNAc(b1-3)Gal(b1-4)GlcNAc(b1-3)Gal(b1-4)GlcNAc(b1-3)Gal(b1-4)GlcNAc(b1-2)Man(a1-3)]Man(b1-4)GlcNAc(b1-4)[Fuc(a1-6)]GlcNAc
# Method in brief: as §1
# [29] = molecular target: GlcNAc(b1-3)Gal(b1-4)GlcNAc(b1-3)Gal(b1-4)GlcNAc(b1-3)Gal(b1-4)GlcNAc(b1-3)Gal(b1-4)GlcNAc(b1-2)Man(a1-3)[GlcNAc(b1-3)Gal(b1-4)GlcNAc(b1-3)Gal(b1-4)GlcNAc(b1-3)Gal(b1-4)GlcNAc(b1-3)Gal(b1-4)GlcNAc(b1-2)Man(a1-6)]Man(b1-4)GlcNAc(b1-4)GlcNAc
# Method in brief: as §1
# [30] = molecular target: GlcNAc(b1-3)Gal(b1-4)GlcNAc(b1-3)Gal(b1-4)GlcNAc(b1-3)Gal(b1-4)GlcNAc(b1-3)Gal(b1-4)GlcNAc(b1-2)Man(a1-3)[GlcNAc(b1-3)Gal(b1-4)GlcNAc(b1-3)Gal(b1-4)GlcNAc(b1-3)Gal(b1-4)GlcNAc(b1-3)Gal(b1-4)GlcNAc(b1-2)Man(a1-6)]Man(b1-4)GlcNAc(b1-4)[Fuc(a1-6)]GlcNAc
# Method in brief: as §1
# [31] = molecular target: GlcNAc(b1-3)Gal(b1-4)GlcNAc(b1-3)Gal(b1-4)GlcNAc(b1-3)Gal(b1-4)GlcNAc(b1-3)Gal(b1-4)GlcNAc(b1-2)[GlcNAc(b1-3)Gal(b1-4)GlcNAc(b1-3)Gal(b1-4)GlcNAc(b1-3)Gal(b1-4)GlcNAc(b1-3)Gal(b1-4)GlcNAc(b1-6)]Man(a1-6)[GlcNAc(b1-3)Gal(b1-4)GlcNAc(b1-3)Gal(b1-4)GlcNAc(b1-3)Gal(b1-4)GlcNAc(b1-3)Gal(b1-4)GlcNAc(b1-2)Man(a1-3)]Man(b1-4)GlcNAc(b1-4)[Fuc(a1-6)]GlcNAc
# Method in brief: as §1
# [32] = molecular target: GlcNAc(b1-3)Gal(b1-4)GlcNAc(b1-3)Gal(b1-4)GlcNAc(b1-3)GalNAc
# Method in brief: as §1
# [33] = molecular target: GlcNAc(b1-3)Gal(b1-4)GlcNAc(b1-3)GalNAc
# Method in brief: as §1
# [34] = molecular target: GlcNAc(b1-3)Gal(b1-4)GlcNAc(b1-3)[GlcNAc(b1-3)Gal(b1-4)GlcNAc(b1-3)]GalNAc
# Method in brief: as §1
# [35] = molecular target: GlcNAc(b1-3)Gal(b1-4)GlcNAc(b1-6)[Gal(b1-3)]GalNAc
# Method in brief: as §1
# [36] = molecular target: GlcNAc(b1-3)Gal(b1-4)GlcNAc(b1-6)[GlcNAc(b1-3)Gal(b1-3)]GalNAc
# Method in brief: as §1
# [37] = molecular target: GlcNAc(b1-3)Gal(b1-4)GlcNAc(b1-6)[GlcNAc(b1-3)]Gal(b1-4)GlcNAc
# Method in brief: as §1
# [38] = molecular target: GlcNAc(b1-3)GalNAc
# Method in brief: as §1
# [39] = molecular target: GlcNAc(b1-3)Man
# Method in brief: as §1
# [40] = molecular target: GlcNAc(b1-3)[GlcNAc(b1-4)][GlcNAc(b1-6)]GlcNAc
# Method in brief: as §1
# [41] = molecular target: GlcNAc(b1-3)[GlcNAc(b1-6)]Gal(b1-4)GlcNAc
# Method in brief: as §1
# [42] = molecular target: GlcNAc(b1-3)[GlcNAc(b1-6)]GalNAc
# Method in brief: as §1
# [43] = molecular target: GlcNAc(b1-4)Gal(b1-4)GlcNAc
# Method in brief: as §1
# [44] = molecular target: GlcNAc(b1-4)GlcNAc
# Method in brief: as §1
# [45] = molecular target: GlcNAc(b1-4)GlcNAc(b1-4)GlcNAc
# Method in brief: as §1
binder,measurement,setting,value
B1,glycan array binding signal (z-score),[1],0.97
same,glycan array binding signal (z-score),[2],-0.299
same,glycan array binding signal (z-score),[3],-0.298
same,glycan array binding signal (z-score),[4],-0.124
same,glycan array binding signal (z-score),[5],-0.342
same,glycan array binding signal (z-score),[6],-0.252
same,glycan array binding signal (z-score),[7],-0.322
same,glycan array binding signal (z-score),[8],-0.326
same,glycan array binding signal (z-score),[9],-0.303
same,glycan array binding signal (z-score),[10],-0.292
same,glycan array binding signal (z-score),[11],-0.238
same,glycan array binding signal (z-score),[12],0.017
same,glycan array binding signal (z-score),[13],-0.119
same,glycan array binding signal (z-score),[14],-0.246
same,glycan array binding signal (z-score),[15],-0.178
same,glycan array binding signal (z-score),[16],-0.194
same,glycan array binding signal (z-score),[17],-0.247
same,glycan array binding signal (z-score),[18],-0.176
same,glycan array binding signal (z-score),[19],-0.213
same,glycan array binding signal (z-score),[20],-0.119
same,glycan array binding signal (z-score),[21],0.511
same,glycan array binding signal (z-score),[22],-0.311
same,glycan array binding signal (z-score),[23],0.843
same,glycan array binding signal (z-score),[24],0.04
same,glycan array binding signal (z-score),[25],0.009
same,glycan array binding signal (z-score),[26],-0.181
same,glycan array binding signal (z-score),[27],0.129
same,glycan array binding signal (z-score),[28],-0.17
same,glycan array binding signal (z-score),[29],-0.141
same,glycan array binding signal (z-score),[30],-0.181
same,glycan array binding signal (z-score),[31],-0.199
same,glycan array binding signal (z-score),[32],-0.207
same,glycan array binding signal (z-score),[33],-0.278
same,glycan array binding signal (z-score),[34],-0.26
same,glycan array binding signal (z-score),[35],0.774
same,glycan array binding signal (z-score),[36],-0.317
same,glycan array binding signal (z-score),[37],-0.268
same,glycan array binding signal (z-score),[38],-0.175
same,glycan array binding signal (z-score),[39],-0.281
same,glycan array binding signal (z-score),[40],-0.239
same,glycan array binding signal (z-score),[41],-0.248
same,glycan array binding signal (z-score),[42],-0.309
same,glycan array binding signal (z-score),[43],-0.285
same,glycan array binding signal (z-score),[44],-0.288
same,glycan array binding signal (z-score),[45],-0.291
